Out of some 48,000 compounds screened, about 120 (0.25%) were called active. Another 4% or so got no clear call; they are omitted. Calls come from the whole dose curve; as a rule, active = well fitted activation curve with a large enough effect; inconclusive = small, poorly fitted or top-dose-only effect, or another doubt; inactive = no such curve, though single readings can be large or run the other way. The entries are a selection whose mix differs from that of the whole data set. The source gives no active or inactive call for entries shown without one.
Experiment: Primary qHTS for Identification of Small Molecule Activators of Huntingtin-Antisense Promoter Activity; note: nearly all actives have a fitted effect of over 55% in size
Details: HEK293 HTT-AS promoter firefly luciferase reporter, 24 h; activity change, positive = activation: at 57.5 µM (top of the series), percent change from vehicle, -100% = no light
Text: Assay Provider: Russell L. Margolis M.D.
Department Neurology, Johns Hopkins University School of Medicine, Baltimore, MD
Huntington's Disease (HD) is a neurodegenerative disorder caused by a CAG repeat expansion in exon 1 of huntingtin (HTT). While there are currently no disease-modifying treatments for HD, recent efforts have focused on development of nucleotide-based therapeutics to lower HTT expression. As an alternative to siRNA or oligonucleotide methods, we hypothesized that suppression of HTT expression might be accomplished by small molecules that either (1) directly decrease HTT expression by suppressing HTT promoter activity or (2) indirectly decrease HTT expression by increasing the promoter activity of HTT-AS, the gene antisense to HTT that appears to inhibit expression of HTT.
We developed and employed a high throughput screen for modifiers of HTT and HTT-AS promoter activity using luminescent reporter HEK293 cells; of the 52,041 compounds tested, we identified 898 replicable hits. We used a rigorous stepwise approach to assess compound toxicity and the capacity of the compounds to specifically lower huntingtin protein in 5 different cell lines, including HEK293 cells, HD lymphoblastoid cells, mouse primary neurons, HD iPSCs differentiated into cortical-like neurons, and HD hESCs. We found no compounds which were able to lower huntingtin without lowering cell viability in all assays, though the potential efficacy of a few compounds at non-toxic doses could not be excluded.
SEQUENCE No. (1, 2, 3, etc.); […] (e.g., Cells, Incubation, Reagent, etc.); VALUE and DESCRIPTION.
1; Reagent; 4 uL; 2,500 Hek293 luciferase reporter cells per wells
3; Compound; 23 nL; Control inhibitor / compound library
5; Reagent; 2.5 uL; Firefly Luc reagent; Dual-Glo Luciferase Reporter Assay System (Promega)
6; Time; 10 min; room temperature incubation
7; Detection; Luminescence; FLuc
NOTES (numbers refer to sequence above)
1; High-throughput screening, measuring luminescence from a Hek293 luciferase reporter, was performed in 1,536 well white-walled tissue-culture treated plates. 2,500 cells were plated in 4 µL of Opti-MEM per well using a Multidrop Combi Reagent Dispenser (ThermoFisher).
2; Assay plates were cultured for 24 hours.
3; Control inhibitor (PTC124; final concentration of 50 uM) and compound library (at final concentrations of 460 nM - 57.5 uM) were added to the assay plate using the Kalypsis Pintool Robotic System equipped with 1536 pinheads.
4; Cells were then incubated for 24 hours at 37 degrees C prior to luminescence measurements.
5; In all cases, luminescence was measured using the Dual-Glo Luciferase Reporter Assay System (Promega) following the manufacturer's instructions.
6; Room temperature incubation.
7; Luminescence signal was obtained using the PerkinElmer ViewLux plate reader. Results were normalized to vehicle control (0% activity) and zero RLU (-100% activity).
Potency is the fitted concentration of half-maximal effect.

Row | Structure (SMILES) | activity change, positive = activation | Potency
1 | CCOC(=O)c1[nH]c2ccccc2c1NC(=O)c1cc(Cl)ccc1Cl | inactive: -22.3% | 
2 | COc1ccc(CNC(=O)c2cc3c(=O)n(Cc4ccco4)ccc3nc2C)c(OC)c1 | -17.9% | 
3 | CCOc1ccc(NC(=O)c2cc(-c3ccc(C)c(F)c3)on2)c([N+](=O)[O-])c1 | 0.608% | 
4 | Cc1ccc(NC(=O)n2ncc3c(C)cccc32)c(C)c1 |  | active: 7.08 µM
5 | CCCOc1ccc(NC(=O)CC2C(=O)N(c3cccc(OC)c3)C(=O)N2CCc2ccncc2)cc1 (configuration not stated) | -15.5% | 
6 | COc1ccc(N2CCN(C(=O)CCc3c(C)nn(-c4ccc(N5CCCC5)nn4)c3C)CC2)cc1 | -21.4% | 
7 | Cc1c(NC(=O)c2cc(-c3ccc(Cl)c(Cl)c3)on2)c(=O)n(-c2ccccc2)n1C | -3.29% | 
8 | Cc1ccc(C)c(N2CCN(C(=O)C3CCN(c4nc(-c5ccc(C(C)C)cc5)no4)CC3)CC2)c1 | inactive: -93.2% | 
9 | COc1cc(NC(=O)c2noc3c2CCc2ccccc2-3)cc(OC)c1OC | -8.19% | 
10 | Cc1ccc(OCCn2c(-c3ccc(Cl)cc3)nc3ccccc3c2=O)c(C)c1 | -5.2% | 
11 | CCCCNC(=O)c1cnc2sc(N3CCCCC3)nn2c1=O | 4% | 
12 | COc1cccc(OCCCn2c(-c3ccc(Cl)cc3)nc3ccccc3c2=O)c1 | 11.9% | 
13 | Cc1c(CCC(=O)NCc2ccc(F)cc2)c(=O)oc2cc(O)ccc12 | -3.05% | 
14 | CCn1c(CN2CCCCC2)nc2cc(NC(=O)COc3ccccc3C(C)(C)C)ccc21 | inactive: -25.4% | 
15 | COc1ccc(N2CCN(C(=O)c3cc(-c4ccc(C)c(F)c4)on3)CC2)cc1 | -12.8% | 
16 | Cc1ccc(OCCCn2c(-c3ccc(Cl)cc3)nc3ccccc3c2=O)c(C)c1 | -1.5% | 
17 | COc1ccc(S(=O)(=O)Nc2cccc(-c3ccc(N4CCC(C)CC4)nn3)c2)c(OC)c1 | 28.6% | 
18 | COC(=O)c1cc2oc3ccccc3c2n1CC(=O)Nc1ccc(C)c(F)c1 | 5.93% | 
19 | COc1ccc(-c2cc(C(=O)Nc3cccnc3)no2)cc1OC | 15.6% | 
20 | Cc1ccc(Cl)cc1NC(=O)COC(=O)CC(C)(C)CC1=NS(=O)(=O)c2ccccc2N1 | inactive: -34.6% | 
21 | CCCc1cc(C(=O)Nc2c(C)nn(Cc3c(Cl)cccc3Cl)c2C)no1 | -23.8% | 

Row | Structure (SMILES) | activity change, positive = activation | Potency
22 | Cc1cc(C)c(S(=O)(=O)Nc2ccc(-c3ccc(N4CCCCCC4)nn3)cc2)c(C)c1 | 22.1% | 
23 | Cc1nn(-c2ccc(N3CCCC3)nn2)c(C)c1CCC(=O)Nc1ccc(F)c(Cl)c1 | 3.23% | 
24 | Cn1c(=O)oc2cc(S(=O)(=O)N3CCC(C(=O)Nc4ccc(F)c(Cl)c4)CC3)ccc21 | inactive: -16.8% | 
25 | O=C(Nc1cccnc1)c1cc(-c2cccc(Cl)c2)on1 | 4.87% | 
26 | Cc1cc(O)c2c(C)c(CC(=O)NCc3ccccc3Cl)c(=O)oc2c1 | -10.5% | 
27 | COc1ccc(C(=O)CC2(O)C(=O)N(Cc3ccccc3)c3ccc(Br)cc32)cc1 (configuration not stated) | -6.18% | 
28 | CCOC(=O)c1cc(C)n(CC2CCC(C(=O)Nc3ccc(OC)cc3)CC2)c1C (configuration not stated) | -19.2% | 
29 | COc1ccccc1NC(=O)c1cc2c(=O)n(Cc3cccs3)ccc2nc1C | -20.8% | 
30 | COc1ccc(F)cc1S(=O)(=O)Nc1cccc(-c2ccc(N3CCCCCC3)nn2)c1 | 17.6% | 
31 | Cc1cc(C(=O)N2CCN(c3cccc(Cl)c3)CC2)n(-c2ccccc2)n1 | inactive: -28.4% | 
32 | Cc1ccc(NC(=O)CSc2nc(-c3ccco3)nc3cc(=O)[nH]n23)cc1C | -12.1% | 
33 | CCOC(=O)c1cc(C)n(CC2CCC(C(=O)Nc3ccc(C)c(F)c3)CC2)c1C (configuration not stated) | -32.1% | 
34 | COc1cc2c(-c3ccccc3O)nc3c(c(C)nn3-c3ccccc3)c2cc1OC | -1.91% | 
35 | O=S(=O)(Nc1cccc(-c2ccc(N3CCOCC3)nn2)c1)c1ccc(F)cc1F | 11.8% | 
36 | CC(C)c1ccccc1NC(=O)CSc1nnc(COc2ccccc2Cl)o1 | inactive: -17.8% | 
37 | O=C(/C=C/c1ccccc1)N1CCN(Cc2cc(=O)n3nc(-c4ccccc4)sc3n2)CC1 | 6.24% | 
38 | CCCOc1ccc(C2C(=O)N(C3CCCCCC3)CC(=O)N2CCCOCC)cc1OC (configuration not stated) | -9.98% | 
39 | CCOc1ccccc1C(=O)Nc1cc2c(cc1N1CCCCC1)n(C)c(=O)n2C | -48.5% | 
40 | COc1cc(-c2nnc(SCC(=O)Nc3cccc(C#N)c3)o2)cc(OC)c1OC | -0.132% | 
41 | CS(=O)(=O)N1CCC(N2CCN(Cc3ccc(F)cc3)C(=O)C2=O)CC1 | 2.36% | 
42 | Cc1cccc(N(C)c2nc3ccc(C)cc3n3nnnc23)c1 | -5.96% | 

Row | Structure (SMILES) | activity change, positive = activation | Potency
43 | O=C(O)CCc1ccc(-c2ccc(Cl)cc2)n1-c1cccc(C(F)(F)F)c1 | -21.8% | 
44 | COC(=O)c1cc2oc3ccccc3c2n1CC(=O)Nc1cccc(SC)c1 | 7.22% | 
45 | O=C(Nc1ccc2c(c1)OCO2)c1cc(-c2cccc(Cl)c2)on1 | 15.3% | 
46 | COc1ccccc1-c1cc(C(=O)N2CCN(c3ccccc3)CC2)no1 | 1.53% | 
47 | O=C(CSc1nc(-c2ccco2)nc2cc(=O)[nH]n12)Nc1ccc(F)cc1 | -6.94% | 
48 | CCOc1ccc(CC(=O)NCCc2sc(-c3cccc(F)c3)nc2C)cc1 | inactive: -38.3% | 
49 | COc1ccc(CNC(=O)Cc2c(C)c3c(O)cc(C)cc3oc2=O)cc1 | 12.6% | 
50 | CCOc1ccc(NS(=O)(=O)c2ccc3[nH]cc(C(=O)NCc4ccco4)c(=O)c3c2)cc1 | inactive: -29.7% | 
51 | CCCOc1ccc(C(=O)Nc2cccc(-c3nc4ccccc4[nH]3)c2)cc1 | inactive: -9.78% | 
52 | CCc1nn(CC(=O)NC(C)C)c(=O)c2cc3cc(F)ccc3n12 | -1.91% | 
53 | Cc1cccc(C)c1Nc1c(-c2ccsc2)nc2ccccn12 | inactive: -33.7% | 
54 | Cc1cccc(Nc2nnc(-n3nc(C)cc3C)c3ccccc23)c1 | 51% | 
55 | COc1cc(NC(=O)c2cc(-c3ccc4c(c3)OCO4)on2)cc(OC)c1OC | 4.69% | 
56 | COc1ccc(NC(=O)c2cnn(-c3ccc(C)cc3)c2-n2cccc2)cc1Cl | -24.6% | 
57 | O=C(Cn1c(=O)oc2ccccc21)NCc1cccc(Cl)c1 | 10.7% | 
58 | Cc1cccc(CCNC(=O)c2cc3ccccn3n2)c1 | 54.6% | 
59 | O=c1ccn([C@@H]2O[C@H](CO)[C@H](O)[C@@H]2F)c(=O)[nH]1 | inactive: -32.1% | 
60 | O=C(Nc1ccc(C(=O)OCc2cc(=O)n3nc(C4CC4)sc3n2)cc1)c1ccc(F)cc1 | inactive: 10.7% | 
61 | COc1ccccc1C(=O)Nc1cc2c(cc1N1CCCCC1)n(C)c(=O)n2C | -8.01% | 
62 | COC(=O)c1cc2oc3ccccc3c2n1CC(=O)Nc1ccc(OC)c(OC)c1OC | -18.8% | 

Reference: PubChem BioAssay AID1508624 (National Center for Advancing Translational Sciences (NCATS), 2021)
